One experiment relates to A20 cells. The experiment can be described thus: A20 mouse B-cell lymphoma animal model, tumor growth in Balb/c mice. It counts as in vivo. On the procedure: The animal experiment was carried out in accordance with the requirements of AAALAC, and was approved by Bikai Animal Experiment Center IACUC to conduct. 6-8 week-old Balb/c mice (16-20 grams) were purchased from Beijing Weitong Lihua Experimental Animal Technology Co., Ltd. Each mouse was subcutaneously inoculated with 500,000 A20 cells, and inoculated on the right rear side of the back of the mouse. When the volume of the tumor grew to about 60mm^3, the mice were randomly assigned to the control group and the experimental group.
Mice were euthanized whnmorbidity or weightloss>20% was observed. Tumors were measured with a caliper twice weekly until final sacrifice. When a tumor size reached approximately 2000 mm^3 or there were animal health issues (20% area of a tumor ulcerated), the animals would be euthanized an date of death recorded. Solid tumor volumes were estimated from two dimensional tumor measurements and calculated according to the following equation:
Tumor volume (mm 3)=[length(mm)×width2 (mm 2)]/2
The percent median regression for a group at a given day was then obtained by taking the median of the individual percent regression calculated for each animal of the group at this day. The day of calculation was determined on the day when ΔT/ΔC (i.e., the ratio of medians of tumor volume changes from baseline between the treated and control groups)was calculated, except when median percent regression was not representative of the activity of the group. In that case, the day was determined on the first day when the median percent regression was maximal. Regressions were defined as partial (PR) if the tumor volume decreased to 50% of the tumor volume at the start of treatment. Complete regression (CR) was considered to have been achieved when tumor volume was below 14 mm^3 or could not be recorded. • RTV: Relative Tumor Volume. RTV=Vt/V0∘ Vt: Tumor volume at the end of an experimental period (treatment group). V0: tumor volume at the beginning of the experiment • TGI: Tumor Growth Inhibition value. TGI=[1−RTV(experimental group)/RTV(control group)]*100%
A two-way ANOVA type with factors treatment an day(repeated) was performed on tumor volume changes from baseline. In case of significant treatment day interaction or treatment effects, it was followed by a contrast analysis with Bonferroni-Holm correction for multiplicity to compare all treated groups to the control group at each day from day 8 to 27. Tumor volume changes from baseline were calculated for each animal and each day by subtracting the tumor volume on the day of first treatment from the tumor volume on the specified observation day. As heterogeneity of variances was observed between groups, the compound symmetric(CS) covariance structure with group=option was chosen for the ANOVA type model (SAS Institute Inc. (2008) SAS/STAT 9.2User′s Guide by CaryNC). All statistical analyses were performed using SAS version v9.2 software. A probability less than 5% (p<0.05).
6-8 weeks old balb/c mice (18-20 g) were purchased from Beijing Weitong Lihua Experimental Animal Technology Co., Ltd., and each mouse was subcutaneously inoculated with 500,000 A20 cells on the right rear side of the mouse's back. Treatment was initiated when tumors grew to a volume of approximately 62 mm^3. CN401 was orally administered at 150 mg/kg twice a day for 3 weeks.
CN202 was administered by intraperitoneal injection, 3 times a week at a dose of 5 mg/kg for 3 weeks. The control group was treated with vehicle (0.5% MC and PBS) without active product. Tumor size and body weight were measured three times a week. This animal experiment was carried out in accordance with the requirements of AAALAC, and was approved by Bikai Animal Experiment Center IACUC to conduct this animal experiment.
Referring to the experimental method of Example 1.1, the difference is that the dosage of CN202 is replaced by 15 mg/kg from 5 mg/kg. […]

In experiment [1] the test system is EMT-6 cells (mouse triple-negative breast cancer cells). The format is in vivo. As to conditions: Example 4, CN202 15 mg/kg i.p. three times a week × 2 week + once a week × 2 week. The method, then: Tumors were measured with a caliper twice weekly until final sacrifice. […] Solid tumor volumes were estimated from two dimensional tumor measurements and calculated according to the following equation: […]

B1: CN202: PD-L1/TGFβ dual inhibitor; two polypeptides of anti-PD-L1 VH, CH2, CH3 domains and TGFβRII fragment joined by linker (SEQ ID NO: 7) (protein)
chain: EVQLVESGGGLVQPGGSLRLSCAASGHFSNLAVNWFRQAPGKERELVAGILWSGGSTFYADSVKGRFTISRGNAENMLYLQMNSLRAEDTAVYYCNTGTNWGQGTLVTVSS[in this place human IgG1 Fc]GGSGGGGSGGGGSGGGGSIPPHVQKSVNNDMIVTDNNGAVKFPQLCKFCDVRFSTCDNQKSCMSNCSITSICEKPQEVCVAVWRKNDENITLETVCHDPKLPYHDFILEDAASPKCIMKEKKKPGETFFMCSCSSDECNDNIIFSEEYNTSNPD
modifications: homodimer
B1: the “CR(Number of mice with tumor regression/total amount of mice in each group)” value is listed as 1/8 in the experiment with A20 cells (Example 1.1, CN202 5 mg/kg i.p. tiw × 3 weeks, day 22); 2/8 with A20 cells (Example 1.2, CN202 15 mg/kg i.p. tiw × 3 weeks, day 22); 1/7 in the experiment on A20 cells (Example 2.1, CN202 5 mg/kg i.p. tiw × 3 weeks, day 22); 1/7 with A20 cells (Example 2.2, CN202 5 mg/kg i.p. tiw × 3 weeks, day 21); 0/8 in experiment [1] (observed up to 80 days). Moreover, the TGI % in the experiment on A20 cells (Example 1.1, CN202 5 mg/kg i.p. tiw × 3 weeks, day 22 vs vehicle control, p=0.27) amounted to 31%; in the experiment on A20 cells (Example 1.2, CN202 15 mg/kg i.p. tiw × 3 weeks, day 22 vs vehicle control, p=0.014) it was 58%; in the experiment with A20 cells (Example 2.1, CN202 5 mg/kg i.p. tiw × 3 weeks, day 22 vs vehicle control, p=0.004) it was 68%; with A20 cells (Example 2.2, CN202 5 mg/kg i.p. tiw × 3 weeks, day 21 vs vehicle control, p=0.004), 68%; in experiment [1] (14th day vs vehicle control, p=0.11), 42%.
